We go through three compounds from US12215129B2, “Antibacterial cyclopeptides targeting acinetobacter and other gram-negative pathogens” (priority 2020, dated 2025).

Where two headings read alike, the source gives them in different places. Starred links: 1 amine or outer side, 2 acyl side, 3 side chain; linkers in the order of their positions; H or OH if unused. Positions of bridges follow the written chain, without caps; N, C: chain ends. Non-standard residues stand in square brackets, D forms with d. Residues, ends and D or L forms follow the SMILES beside them. *: point of attachment. dAsp(3R-OH) = N[C@@H](C(=O)O)[C@@H](O)C(=O)O; Palmitoleoyl = CCCCCC/C=C\CCCCCCCC(=O)*; X1 = NC[C@H](O)[C@@H](N[*:1])C(=O)[*:2]; X2 = CCC(C)(O)[C@H](N[*:1])C(=O)[*:2]; d(aIle) = CC[C@H](C)[C@@H](N)C(=O)O; Myristoyl = CCCCCCCCCCCCCC(=O)*; dOrn = NCCC[C@@H](N)C(=O)O; hSer = N[C@@H](CCO)C(=O)O

This experiment has as its system A. baylyi strain ADP1. The settings on record: for effect on cells / terminal cell morphology: A. baylyi; for effect on cells: concentrations 4 times the MIC; for terminal cell morphology: drug at the MIC.
Where [1] appears, read: concentration used for growth inhibition, FIG. 4.

For `CCCCCCCCCCCCCC(=O)N[C@H](CCCN)C(=O)N[C@@H](CO)C(=O)N[C@H](C(=O)N[C@@H](C(=O)N[C@@H](C(=O)N[C@@H]1C(=O)NCC(=O)N[C@@H](C(C)(O)CC)C(=O)N[C@H]([C@@H](C)CC)C(=O)N[C@@H](CCO)C(=O)N[C@@H](C)C(=O)N[C@H]([C@@H](C)CC)C(=O)N[C@@H](CCC(=O)O)C(=O)O[C@@H]1C)[C@@H](O)CN)[C@@H](O)C(=O)O)C(C)C` (stereo partly drawn) [Compound 1, Turnercyclamycin A] (Myristoyl-[dOrn]SV[dAsp(3R-OH)][X1]TG[X2][d(aIle)][hSer]A[d(aIle)]E; ester 6-C), the effect on cells result is “killed cells immediately”; the terminal cell morphology result was “rounded and clumped”. Also, under setting [1], the approximate MIC (A. baylyi) worked out at 8 µg/mL.

Turning to `CCCCCC/C=C\CCCCCCCC(=O)N[C@H](CCCN)C(=O)N[C@@H](CO)C(=O)N[C@H](C(=O)N[C@@H](C(=O)N[C@@H](C(=O)N[C@@H]1C(=O)NCC(=O)N[C@@H](C(C)(O)CC)C(=O)N[C@H]([C@@H](C)CC)C(=O)N[C@@H](CCO)C(=O)N[C@@H](C)C(=O)N[C@H]([C@@H](C)CC)C(=O)N[C@@H](CCC(=O)O)C(=O)O[C@@H]1C)[C@@H](O)CN)[C@@H](O)C(=O)O)C(C)C` (stereo partly drawn) [Compound 2, Turnercyclamycin B] (Palmitoleoyl-[dOrn]SV[dAsp(3R-OH)][X1]TG[X2][d(aIle)][hSer]A[d(aIle)]E; ester 6-C), the effect on cells entry is on record as “killed cells immediately”; the terminal cell morphology entry is “rounded and clumped”. Under setting [1], the approximate MIC (A. baylyi) turned out to be 8 µg/mL.

As to Colistin [reference compound], the approximate MIC (A. baylyi) was found to be 0.5 µg/mL and the terminal cell morphology result is reported as “clumped, rounded cells”.
